Read counts are not given, so values of variants with three or more changes are uncertain.
B1: OR4K15 (parent)
chain: GUUAACGGUCAUAGGCCAUGGAAACUAGGAGCACCAUUUCGCUGCCAGUGAAGAAAUGAACAAAGAAAAUCUGGGCCAGGCAGGCAUCAAAAGAAAUAGUCUUGCGCUCAACCAGAAAGUCUGUAAUCAUUUUAAGGGUA

Variants of: B1
Assay: self-cleavage, relative activity (ratio to wild type); higher = more cleavage; in vitro, sequencing; the parent is a self-cleaving ribozyme

Row | Variant | self-cleavage
1 | A5G A11G U19C A30G A66G A67G A69G | 1.09
2 | U12C A98G A114G A140G | 0.07
3 | A22U U49C A86U | 1.74
4 | U49G A54U C101G | 0.06
5 | A11U A60G U87A A111G A114U | 0
6 | A30G U49A U70C | 1.11
7 | U37C A51G A82G | 0.44
8 | A23G U70C A78U A95G U102C | 0.77
9 | A30G U108C A116G | 0.02
10 | C25U U39C A51G A89G A98G | 0.63
11 | A114G A117G A118G U120C U127C | 0.02
12 | G14A A60U A63G C88U A95G A129G A135U | 1.32
13 | A11G G75A A126U | 0.14
14 | A23G A67G U87C A94G | 0.3
15 | G14A U39A A90G | 1.56
16 | U9A A62G A82U C107U | 0.03
17 | U3C A11G A56G A78G | 0.09
18 | U9C A91G A117G | 1.41
19 | A59G C109U A135G | 0.15
20 | U57C A64G A135G | 0.82
21 | A47U A63G A111G | 0.01
22 | A56G A59G A86G U100A U102C | 2.13
23 | A36G A69G A111G A116U A118U | 0
24 | U38A U70C A82G U122C | 0.05

Row | Variant | self-cleavage
25 | U2C U102A A118G | 0.21
26 | U39A A51U A111G U130C | 0.01
27 | A54U A91G U100C | 2.53
28 | U2C A33U A47G U139C | 0.66
29 | U12A A94G A96G U97A | 1.17
30 | A51G G65A U72C A86G | 0.31
31 | A11G A23G A60G A62G U87C | 0.27
32 | U70C C76A A90G | 0.16
33 | C25U A27G A59G A64G A90G | 0.8
34 | U39A U57A A64G | 1.07
35 | A5G C17U A59G | 1.2
36 | U39C A47U A67G A92U | 0.13
37 | A52G A55G A134G | 1.69
38 | A11G G14A A92U A117G | 2.26
39 | U2C A22G U131C | 0.92
40 | U37C U87C U97C U102C | 2.12
41 | C6U A56G A89C | 0.96
42 | A59G U108G U133C A134G | 0.01
43 | U26C A67G A96U U108C | 0.04
44 | A30G A33G G44C C46U A52G U132C | 1.06
45 | A5U A33G A63G | 1.09
46 | U37C A62G U100C | 1.1
47 | A67G A98G U132C | 1.17
48 | C10U U39C A91U A117C U122A U139C | 0.59

Row | Variant | self-cleavage
49 | A59G U70C A89U | 0.51
50 | U38C A56G A59G | 0.64
51 | C34U A92U A95C U108C | 0.02
52 | A11G A23U C32U U57C A114U | 0.05
53 | A63G A90G A111G | 0
54 | U49C G73A A90U A94G A118G | 0.05
55 | A51G A114G U122A | 0.12
56 | A24U A96G A135U | 1.41
57 | A30G A96G U102A | 0.67
58 | U19A A92C A96C | 0.94
59 | A23G A27G A62U U100C | 1.18
60 | A23G G41A A62U A114U | 0.11
61 | A63G A66G U124A | 0.32
62 | A5G U19A U38C U43A U102A | 0.98
63 | A69U A78C U103C | 0.27
64 | A5G A56G U122C U124C | 0.49
65 | A63G U102C C107G G123U | 0.03
66 | U9A U26C A51U A52U A78U | 0.13
67 | U39A A69G U87C U130C | 1.55
68 | U3C U26C A90G A117G | 0.68
69 | A11G U39C U57C U120C | 0.82
70 | G41A U49C A60G U131C | 0.83
71 | U9C A60C U108A | 0.01
72 | U2C A18U A129G | 0.67

Row | Variant | self-cleavage
73 | U9C A60G A86U U108A A126G | 0.01
74 | A47G U49C A54C A59G A68G A126G | 0.17
75 | C76G A78C A117G A125G | 0
76 | G14U A22G A51U | 1.13
77 | U120G U122C A135G | 0.95
78 | U12G U19C U127C | 0.29
79 | U38C U87A U139C | 1.99
80 | A51G C61G U130G | 0
81 | C25U A55G U102C | 1.8
82 | A11G U38C A86C | 0.57
83 | U9C U57C A67G A114G | 0.31
84 | U9C A90G A118G | 0.63
85 | A11G A47U A114G A129U | 0.07
86 | A11G A56U A91U U132C | 1.02
87 | A66G G106A A134G | 0
88 | U26A U38C U49C U72A | 0.13
89 | A54G G75A A92U U100C | 0.02
90 | A13G A24G C40U U103C | 0.46
91 | A5G A62G A63G | 1.33
92 | A56G U108A U122C | 0
93 | C45U A54U A59G A62G A98G U120A | 0.73
94 | A11G U132A A140G | 0.87
95 | A69U A89U U102C U130C | 1.97
96 | A62U A86C A118G | 0.1

Row | Variant | self-cleavage
97 | A78U U100C U103C U108C | 0.01
98 | A56G U87C A90U U120C A140G | 0.2
99 | U43C A54U U124C | 0.94
100 | U19A C35A A47G U57C A67G A111G U122C U131C | 0.01
101 | A23C U43A U131C | 1.28
102 | A5U A23U U49C A56G A62U | 0.9
103 | U72C A89U A118G U139A | 0.03
104 | G28A G31A U37C A51G U108G U139C | 0.03
105 | A23G A69G A134G | 1.32
106 | A27U A54G A62G A98G | 0.45
107 | A67G C113U U120C A125G | 0
108 | A56C U70C A91G U103A | 0.12
109 | A13G A30G A52U | 0.55
110 | A11G A51U A66U A68G U130C | 1.03
111 | A60U A68G A78G A111G A118G A125G | 0.01
112 | A91G A96G U108A | 0.01
113 | U38C A51G A114G U130C | 0.24
114 | A51U G65A A89G A94G U122C A126G | 0.82
115 | G53A A55G A56U A59G A110G A116G | 0.03
116 | A63U U103A A117C | 0.16
117 | A23G A86G A96G | 1.31
118 | U38C A78G A94G U131C | 0.23
119 | A36G A54G A95G A129U U130C | 1.69
120 | A56U A64C A90G | 1.4

Row | Variant | self-cleavage
121 | A59G A91G A126G | 1.18
122 | A11G A51G A82G A90G C121A | 0.29
123 | U12A U57A A89C | 1.02
124 | A64G A67G A69G A86G | 0.37
125 | U9C U108C A111G | 0.02
126 | U39A A67G A140G | 1.68
127 | A68G A69U A126G | 1.18
128 | C35A A129G A135G | 0.49
129 | U102A A110U A114G | 0.03
130 | A5U A18G U38A A86G A134G A135U | 1.09
131 | U57C U103G A125G | 0.01
132 | U19C A92G U103C U131C | 0.57
133 | U19C A68U U130C | 0.52
134 | A47U A54G G79A A89G | 0.22
135 | A22U C112A A116G | 0
136 | U3C G7A C71U A116G A126G | 0.02
137 | A24G C46U A90U | 1.47
138 | U26A A51U A69G | 1.25
139 | A82C A98G A111G | 0.03
140 | U38C U43C U72C A95G | 0.54
141 | A22G U26A A60G | 1.06
142 | C34U A36U A67G C107A | 0.03
143 | U38C A55G C76U A98G A135U | 0.06
144 | U12C A22G A55U G58U C88A | 1.14

Row | Variant | self-cleavage
145 | A4G A22U A69U U120G | 1.88
146 | U9C A69G A78U A117G | 0.42
147 | A36G A82U A86G A94G A98G C105A | 0.01
148 | A22G A54G A78G A95G | 0.17
149 | A64G A67G A117G A126G | 1.4
150 | A60G A94U A116G | 0.62
151 | A24U A54G A59G U130C | 1.91
152 | U39C A51G A66G A89U | 1.36
153 | A24G A98U U132C | 1.79
154 | A82G U100C C107A U132C | 0.01
155 | A13G A90G A94G | 0.26
156 | A23C A67G U127G | 1.59
157 | A4G U49A U103C U122C | 0.5
158 | A11G A66U A92G U102C | 0.79
159 | A67U A114G U124C | 0.37
160 | A52G A82U A135G | 0.22
161 | A18G A24G A64C A90G | 1.48
162 | A22G A55G A69G C71A | 0.38
163 | A22G A52G A56U A59G A60G A89G | 1.11
164 | A33U A52G A94G | 2.24
165 | U9C U39C A66G G106U | 0.02
166 | U2C A64G A114G | 0.26
167 | A67G A69G C109U | 0.49

— the RNAGym collection of RNA variant scans (doi:10.7554/elife.90254)
